In all, about 310,000 compounds went through this assay and about 2,200 (0.71%) showed an effect of 50% or more. The effect is printed as a negative number. This is one part of the list.

The assay deals with human ether-à-go-go-related gene (hERG) potassium channel (human, UniProt Q12809). The assay can be described thus: primary screen, population patch clamp on CHO cells stably expressing hERG.
human ether-à-go-go-related gene (hERG) potassium channel, sequence (Q12809 whole entry, looked up): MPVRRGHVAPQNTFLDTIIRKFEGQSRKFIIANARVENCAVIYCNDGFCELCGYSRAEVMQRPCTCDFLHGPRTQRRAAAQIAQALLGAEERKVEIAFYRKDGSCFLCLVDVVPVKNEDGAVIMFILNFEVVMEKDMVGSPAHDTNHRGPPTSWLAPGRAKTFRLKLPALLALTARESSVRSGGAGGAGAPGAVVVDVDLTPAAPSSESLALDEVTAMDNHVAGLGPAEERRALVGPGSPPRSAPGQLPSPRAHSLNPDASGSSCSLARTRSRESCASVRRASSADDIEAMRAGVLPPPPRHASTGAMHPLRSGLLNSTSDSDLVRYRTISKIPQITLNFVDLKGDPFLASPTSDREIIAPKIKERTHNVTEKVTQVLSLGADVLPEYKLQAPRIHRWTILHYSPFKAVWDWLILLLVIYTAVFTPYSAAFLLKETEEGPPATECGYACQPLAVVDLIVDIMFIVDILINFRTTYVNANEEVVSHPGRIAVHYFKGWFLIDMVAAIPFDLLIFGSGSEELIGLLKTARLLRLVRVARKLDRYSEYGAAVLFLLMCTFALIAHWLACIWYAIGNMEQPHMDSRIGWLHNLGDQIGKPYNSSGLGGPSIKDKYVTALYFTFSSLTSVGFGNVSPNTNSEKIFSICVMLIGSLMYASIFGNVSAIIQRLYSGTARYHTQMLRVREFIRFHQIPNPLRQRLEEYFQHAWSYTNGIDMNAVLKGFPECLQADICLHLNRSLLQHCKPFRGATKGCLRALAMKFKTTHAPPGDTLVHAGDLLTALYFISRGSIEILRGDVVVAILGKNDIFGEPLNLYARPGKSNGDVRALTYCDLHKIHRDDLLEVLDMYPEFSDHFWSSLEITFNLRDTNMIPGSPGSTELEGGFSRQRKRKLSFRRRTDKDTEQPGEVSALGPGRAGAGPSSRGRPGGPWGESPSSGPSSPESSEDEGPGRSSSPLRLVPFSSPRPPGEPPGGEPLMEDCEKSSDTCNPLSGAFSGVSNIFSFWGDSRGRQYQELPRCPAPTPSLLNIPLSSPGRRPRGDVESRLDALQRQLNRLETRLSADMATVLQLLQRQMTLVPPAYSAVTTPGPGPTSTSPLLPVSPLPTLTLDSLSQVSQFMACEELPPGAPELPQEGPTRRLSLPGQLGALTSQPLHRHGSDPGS
Turning to `Cc1ccc(NC(=O)c2ccccc2)cc1C`, the “hERG current change (%, negative = inhibition) at 1uM” value was 20.5%.

For the compound `COc1cc(/C=C/C(=O)OCc2c(C)noc2C)ccc1OC(F)F`, the “hERG current change (%, negative = inhibition) at 1uM” value was found to be 9.04%.

For `COc1ccc(CCNC(=O)c2cc(-c3cc(C)c(C)cc3O)n[nH]2)cc1OC`, the “hERG current change (%, negative = inhibition) at 1uM” value is -9.33%.

With `N=c1c2ccccc2nnn1-c1ccc(C(F)(F)F)cc1`, the “hERG current change (%, negative = inhibition) at 1uM” value amounted to 10.3%.

On to `CCNC(=O)N(C(=O)NCC)n1c(C)nnc1C`, for which the “hERG current change (%, negative = inhibition) at 1uM” value was 11.1%.

For `COc1ccccc1CNC(=O)CN1C(=O)NC(C)(c2ccc(C(C)(C)C)cc2)C1=O` (stereo not shown), the “hERG current change (%, negative = inhibition) at 1uM” value was 20.2%.

For the compound `CC1(C)Cc2ccccc2C(/C(=N/O)C(N)=O)=N1`, the “hERG current change (%, negative = inhibition) at 1uM” value was 12.9%.

Consider `Clc1ccccc1OCc1nn[nH]n1`, for which the “hERG current change (%, negative = inhibition) at 1uM” value came out at 18.7%.

`Cc1oc(-c2ccccc2F)nc1CS(=O)CC(=O)NCc1ccc(F)cc1` (stereo not shown): the “hERG current change (%, negative = inhibition) at 1uM” value is 9.84%.

For `CCOc1ccc(NC(=O)CN2C(=O)CCSc3ccc(S(=O)(=O)N4CCCC4)cc32)cc1`, the “hERG current change (%, negative = inhibition) at 1uM” value is on record as 5%.

As to `CC(OC(=O)/C(C#N)=C/c1ccc(N(C)C)cc1)C(=O)NCc1ccco1` (stereo not shown), the “hERG current change (%, negative = inhibition) at 1uM” value amounted to 6.56%.

With `Cl.c1ccc(CCCN2CCN(CCOC(c3ccccc3)c3ccccc3)CC2)cc1`, the “hERG current change (%, negative = inhibition) at 1uM” value is -41.9%.

`O=S(=O)(c1cccc(-c2cn3cccnc3n2)c1)N1CCOCC1`: the “hERG current change (%, negative = inhibition) at 1uM” value came to 2.86%.

Consider `COc1ccc(CCN(C)Cc2ccc(C(=O)Nc3ccccc3)cc2)cc1OC`, for which the “hERG current change (%, negative = inhibition) at 1uM” value is -23.4%.

With `C=CCn1c(C)c(C=C2C(=O)NC(=O)NC2=O)c2ccccc21`, the “hERG current change (%, negative = inhibition) at 1uM” value stood at 11.7%.

Turning to `Cc1cccc(C(=O)Nc2sc3c(c2C(=O)O)CCCC3)c1`, the “hERG current change (%, negative = inhibition) at 1uM” value is 21.5%.

On to `Nc1n[nH]c(C(F)(F)F)c1-c1ccccc1`, for which the “hERG current change (%, negative = inhibition) at 1uM” value is on record as 2.1%.

As for `CN(Cc1cnn(-c2ccc(F)cc2)c1)Cc1nc(Cc2ccccc2)no1`, the “hERG current change (%, negative = inhibition) at 1uM” value is listed as -7.04%.

Turning to `Cc1ccc(C(=O)CSc2ccc(-c3ccncc3)nn2)cc1`, the “hERG current change (%, negative = inhibition) at 1uM” value is listed as 4.8%.

As to `CCCn1cc(CN2CCC(N3CCC(C(=O)N4CCOCC4)CC3)CC2)c(C)n1`, the “hERG current change (%, negative = inhibition) at 1uM” value was determined as 13.4%.

`CCN1CCN(c2nc3c(c(=O)[nH]2)CCC3)CC1`: the “hERG current change (%, negative = inhibition) at 1uM” value worked out at 13.2%.

Regarding `COC(=O)C1=C(c2ccc(F)cc2OCc2ccccc2)C[C@@H]2CC[C@H]1N2C(=O)NCCOc1ccc(OC)cc1`, the “hERG current change (%, negative = inhibition) at 1uM” value came out at 14.3%.

With `O=C(Nc1ccc(-c2nc3ccccc3[nH]2)cc1)C1CCCO1` (stereo not shown), the “hERG current change (%, negative = inhibition) at 1uM” value was determined as 11.7%.

Turning to `CC(c1n[nH]c(=S)n1-c1ccccc1)N1CCCCC1` (stereo not shown), the “hERG current change (%, negative = inhibition) at 1uM” value is 17.8%.

Consider `COc1ccc(NC(=O)CO/N=C2/CCCc3nonc32)c(OC)c1`, for which the “hERG current change (%, negative = inhibition) at 1uM” value was 8.29%.

The record behind these values is paper PMC4336329 (PLoS ONE, 2015).
